Measurements: patent US20230405002A1, “COMBINATIONS OF DIACYLGLYCEROL ACYLTRANSFERASE 2 INHIBITORS AND ACETYL-COA CARBOXYLASE INHIBITOR” (Pfizer Inc., priority 2020, published 2023)

Tests used:
[1] = system: adults with non-alcoholic fatty liver disease (NAFLD); assay: Phase 2A study: other lipids and apolipoproteins; type: in vivo, human; settings: Day 42; for HDL-Cholesterol % Change from Baseline, LS Mean / HDL-Cholesterol % Change from Placebo, LS Mean / LDL-Cholesterol % Change from Baseline, LS Mean / LDL-Cholesterol % Change from Placebo, LS Mean / Non-HDL Cholesterol % Change from Baseline, LS Mean / Non-HDL Cholesterol % Change from Placebo, LS Mean / Total Cholesterol % Change from Baseline, LS Mean / Total Cholesterol % Change from Placebo, LS Mean: fasting serum, FAS, Cmpd A 15 mg, Cmpd D 300 mg
Text: A summary of the statistical analysis of percent change from baseline in other fasting serum lipid parameters on day 42—FAS is provided in Table 23.
The LS Mean (and 90% Cls) percent change from placebo on Day 42 are given.

[2] = system: adults with non-alcoholic fatty liver disease (NAFLD); assay: Phase 2A study: safety and tolerability, treatment emergent adverse events; type: in vivo, human; settings: for discontinuation from study drug due to AEs: one subject per arm; for Number of adverse events / Subjects discontinued from study due to adverse events (a) / Subjects discontinued study drug due to AE and continue Study (b) / Subjects with adverse events / Subjects with dose reduced or temporary discontinuation due to adverse events / Subjects with serious adverse events / Subjects with severe adverse events: treatment emergent AEs, all causalities, safety analysis set, Cmpd A 15 mg, Cmpd D 300 mg
[3] = system: adults with non-alcoholic fatty liver disease (NAFLD); assay: Phase 2A study: liver function tests (ALT, AST, alkaline phosphatase, GGT); type: in vivo, human; settings: for ALT % Change from Baseline, LS Mean / ALT % Change from Placebo, LS Mean / AST % Change from Baseline, LS Mean / AST % Change from Placebo, LS Mean / Alkaline Phosphatase % Change from Baseline, LS Mean / Alkaline Phosphatase % Change from Placebo, LS Mean / GGT % Change from Baseline, LS Mean / GGT % Change from Placebo, LS Mean: FAS, Cmpd A 15 mg, Cmpd D 300 mg; for GGT change from baseline / alkaline phosphatase change: over the 6-week study
Text: The LS Mean (and 90% CIs) percent change from placebo on Day 42 are given. Table 25 provides a statistical analysis of percent change from baseline in liver function tests on Day 42-FAS. FIGS. 25a-25d provide plots of least square means and 90% CIs for percent change from baseline in liver function tests—FAS. FIG. 25a provides the plot for alanine aminotransferase (ALT); FIG. 25b provides the plot for aspartate aminotransferase (AST); FIG. 25c provides the plot for alkaline phosphotate; and FIG. 25d provides the plot for gamma glutamyl transferase (GGT).

[4] = system: adults with non-alcoholic fatty liver disease (NAFLD); settings: for Serum triglycerides % Change of Combination vs Each Monotherapy, LS Mean: combination Cmpd A 15 mg + Cmpd D 300 mg relative to the monotherapy named as label; for Serum triglycerides % Change from Baseline, LS Mean / Serum triglycerides % Change from Placebo, LS Mean: NAFLD adults, FAS, MMRM, Cmpd A 15 mg, Cmpd D 300 mg
[5] = system: adults with non-alcoholic fatty liver disease (NAFLD); assay: Phase 2A study: platelets; type: in vivo, human; settings: Day 42; for Platelets LSMean (90% CI), placebo-adjusted % change from baseline: Cmpd A 15 mg Q12H, Cmpd D 300 mg Q12H; for Platelets % Change from Baseline, LS Mean / Platelets % Change from Placebo, LS Mean: FAS, Cmpd A 15 mg, Cmpd D 300 mg
Text: Table 27 provides a statistical analysis of percent change from baseline in platelets on Day 42—FAS.

[6] = system: adults with non-alcoholic fatty liver disease (NAFLD); assay: Phase 2A study: whole liver fat by MRI-PDFF; type: in vivo, human; settings: Day 42
[7] = combination (Cmpd A + Cmpd D) versus the monotherapy named in the row
[8] = combination Cmpd A 15 mg + Cmpd D 300 mg relative to the monotherapy named as label
[9] = Day 42, combination Cmpd A 15 mg + Cmpd D 300 mg relative to the monotherapy named as label
[10] = NAFLD patients, ACCi 15 mg BID, DGAT2i 300 mg BID

COc1cc(C(=O)N2CCC3(CC2)CC(=O)c2c(cnn2C(C)C)C3)cc(-c2ccc(C(=O)O)cc2)n1 [Compound A, 4-(4-(1-isopropyl-7-oxo-1,4,6,7-tetrahydrospiro[indazole-5,4′-piperidine]-1′-carbonyl)-6-methoxypyridin-2-yl)benzoic acid]
ApoC3 % Change from Baseline, LS Mean [1]: 45.31% | ApoC3 % Change from Placebo, LS Mean [1]: 42.71% | LDL-cholesterol versus placebo [1]: statistically significantly decreased | ApoC3 % Change of Combination vs Each Monotherapy, LS Mean [1, 7]: −24.66% | HDL-Cholesterol % Change of Combination vs Each Monotherapy, LS Mean [1, 8]: −3.14% | LDL-Cholesterol % Change of Combination vs Each Monotherapy, LS Mean [1, 8]: 12.81% | Non-HDL Cholesterol % Change of Combination vs Each Monotherapy, LS Mean [1, 8]: −5.94% | Total Cholesterol % Change of Combination vs Each Monotherapy, LS Mean [1, 8]: −5.22% | HDL-Cholesterol % Change from Baseline, LS Mean [1]: −15.56% | HDL-Cholesterol % Change from Placebo, LS Mean [1]: −12.77% | LDL-Cholesterol % Change from Baseline, LS Mean [1]: −19.74% | LDL-Cholesterol % Change from Placebo, LS Mean [1]: −21.35% | Non-HDL Cholesterol % Change from Baseline, LS Mean [1]: 1.86% | Non-HDL Cholesterol % Change from Placebo, LS Mean [1]: −0.30% | Total Cholesterol % Change from Baseline, LS Mean [1]: −2.72% | Total Cholesterol % Change from Placebo, LS Mean [1]: −4.61% | discontinuation from study drug due to AEs [2]: discontinued due to severe AE of TG elevation | Number of adverse events [2]: 17 | Subjects discontinued from study due to adverse events (a) [2]: 1 (3.4) n (%) | Subjects discontinued study drug due to AE and continue Study (b) [2]: 0 n (%) | Subjects with adverse events [2]: 10 (34.5) n (%) | Subjects with dose reduced or temporary discontinuation due to adverse events [2]: 1 (3.4) n (%) | Subjects with serious adverse events [2]: 0 n (%) | Subjects with severe adverse events [2]: 1 (3.4) n (%) | ALT % Change from Baseline, LS Mean ([3]; Day 42): −12.41% | ALT % Change from Placebo, LS Mean ([3]; Day 42): −9.70% | AST % Change from Baseline, LS Mean ([3]; Day 42): −0.03% | AST % Change from Placebo, LS Mean ([3]; Day 42): −4.91% | Alkaline Phosphatase % Change from Baseline, LS Mean ([3]; Day 42): 11.20% | Alkaline Phosphatase % Change from Placebo, LS Mean ([3]; Day 42): 8.03% | GGT % Change from Baseline, LS Mean ([3]; Day 42): 22.63% | GGT % Change from Placebo, LS Mean ([3]; Day 42): 22.62% | ALT % Change of Combination vs Each Monotherapy, LS Mean [3, 9]: 5.15% | AST % Change of Combination vs Each Monotherapy, LS Mean [3, 9]: −3.84% | Alkaline Phosphatase % Change of Combination vs Each Monotherapy, LS Mean [3, 9]: −10.74% | GGT % Change of Combination vs Each Monotherapy, LS Mean [3, 9]: −10.16% | GGT change from baseline [3]: an increase observed | alkaline phosphatase change [3]: clear and statistically significant elevation | Serum triglycerides % Change of Combination vs Each Monotherapy, LS Mean ([4]; Study Day 5): −9.53% | Serum triglycerides % Change of Combination vs Each Monotherapy, LS Mean ([4]; Study Day 14): −12.58% | Serum triglycerides % Change of Combination vs Each Monotherapy, LS Mean ([4]; Study Day 28): −25.99% | Serum triglycerides % Change of Combination vs Each Monotherapy, LS Mean ([4]; Study Day 42): −28.03% | Platelets LSMean (90% CI), placebo-adjusted % change from baseline [5]: −7.12 (−14.51, 0.91) % | Platelets % Change from Baseline, LS Mean [5]: −9.35% | Platelets % Change from Placebo, LS Mean [5]: −7.12% | Platelets % Change of Combination vs Each Monotherapy, LS Mean [5, 8]: 9.00% | Whole liver fat % Change of Combination vs Each Monotherapy, LS Mean [6, 7]: −0.21%

CCOc1cccnc1Oc1cncc(-c2ncc(C(=O)N[C@H]3CCOC3)cn2)c1 [Compound D, (S)-2-(5-((3-ethoxypyridin-2-yl)oxy)pyridin-3-yl)-N-(tetrahydrofuran-3-yl)pyrimidine-5-carboxamide]
ApoC3 % Change from Baseline, LS Mean [1]: −6.52% | ApoC3 % Change from Placebo, LS Mean [1]: −8.19% | LDL-cholesterol versus placebo [1]: numerical lowering trends | HDL-Cholesterol % Change from Baseline, LS Mean [1]: −13.43% | HDL-Cholesterol % Change from Placebo, LS Mean [1]: −10.58% | LDL-Cholesterol % Change from Baseline, LS Mean [1]: −5.22% | LDL-Cholesterol % Change from Placebo, LS Mean [1]: −7.12% | Non-HDL Cholesterol % Change from Baseline, LS Mean [1]: −3.51% | Non-HDL Cholesterol % Change from Placebo, LS Mean [1]: −5.56% | Total Cholesterol % Change from Baseline, LS Mean [1]: −5.87% | Total Cholesterol % Change from Placebo, LS Mean [1]: −7.70% | discontinuation from study drug due to AEs [2]: discontinued from study drug due to mild AE of creatine kinase and AST elevations | Number of adverse events [2]: 22 | Subjects discontinued from study due to adverse events (a) [2]: 1 (3.6) n (%) | Subjects discontinued study drug due to AE and continue Study (b) [2]: 1 (3.6) n (%) | Subjects with adverse events [2]: 10 (35.7) n (%) | Subjects with dose reduced or temporary discontinuation due to adverse events [2]: 0 n (%) | Subjects with serious adverse events [2]: 0 n (%) | Subjects with severe adverse events [2]: 0 n (%) | ALT % Change from Baseline, LS Mean ([3]; Day 42): −4.15% | ALT % Change from Placebo, LS Mean ([3]; Day 42): −1.18% | AST % Change from Baseline, LS Mean ([3]; Day 42): 2.21% | AST % Change from Placebo, LS Mean ([3]; Day 42): −2.77% | Alkaline Phosphatase % Change from Baseline, LS Mean ([3]; Day 42): −7.51% | Alkaline Phosphatase % Change from Placebo, LS Mean ([3]; Day 42): −10.15% | GGT % Change from Baseline, LS Mean ([3]; Day 42): −6.31% | GGT % Change from Placebo, LS Mean ([3]; Day 42): −6.32% | GGT change from baseline [3]: no significant change from baseline | alkaline phosphatase change [3]: clear and statistically significant decrease | Triglycerides LSMean (90% CI), placebo-adjusted % change from baseline ([4]; Day 42, Cmpd A 15 mg Q12H, Cmpd D 300 mg Q12H): −8.63 (−24.37, 10.38) % | subjects exceeding triglyceride threshold >400 mg/dl, total number (%) [4, 10]: 2 (7.4) n (%) | subjects exceeding triglyceride threshold >600 mg/dl, total number (%) [4, 10]: 1 (3.7) n (%) | subjects exceeding triglyceride threshold >800 mg/dl, total number (%) [4, 10]: 0 n (%) | Serum triglycerides % Change from Baseline, LS Mean ([4]; Study Day 5): −4.59% | Serum triglycerides % Change from Placebo, LS Mean ([4]; Study Day 5): −13.26% | Serum triglycerides % Change from Baseline, LS Mean ([4]; Study Day 14): −17.53% | Serum triglycerides % Change from Placebo, LS Mean ([4]; Study Day 14): −17.87% | Serum triglycerides % Change from Baseline, LS Mean ([4]; Study Day 28): −7.35% | Serum triglycerides % Change from Placebo, LS Mean ([4]; Study Day 28): −19.25% | Serum triglycerides % Change from Baseline, LS Mean ([4]; Study Day 42): −1.89% | Serum triglycerides % Change from Placebo, LS Mean ([4]; Study Day 42): −8.63% | triglycerides on day 42, key finding ([4]; in words): modest decrease in triglycerides | Platelets LSMean (90% CI), placebo-adjusted % change from baseline [5]: 7.50 (−0.99, 16.71) % | Platelets % Change from Baseline, LS Mean [5]: 4.92% | Platelets % Change from Placebo, LS Mean [5]: 7.50% | Whole liver fat % Change from Baseline, LS Mean ([6]; ANCOVA, Table 21): −30.14% | Whole liver fat % Change from Placebo, LS Mean ([6]; ANCOVA, Table 21): −35.40% | Liver Fat PDFF LSMean (90% CI), placebo-adjusted % change from baseline ([6]; Cmpd A 15 mg Q12H, Cmpd D 300 mg Q12H): −35.40 (−47.40, −20.68) %

Where two headings read alike, the source gives them in different places.
